Assay results as given in PubChem BioAssay AID360 (National Center for Advancing Translational Sciences (NCATS), 2006).
In all, about 48,000 compounds went through this assay and about 550 (1.1%) were called active. Not shown: some 4% with an inconclusive outcome. Rule as the data show it: active = potency below about 15 µM; inconclusive = mostly about 16 µM to 33 µM; inactive = weaker than that. The list shows a part of the results.

Target: Lysosomal acid glucosylceramidase (Homo sapiens) (UniProt P04062)
Sequence of UniProt P04062 (P04062 whole entry, looked up): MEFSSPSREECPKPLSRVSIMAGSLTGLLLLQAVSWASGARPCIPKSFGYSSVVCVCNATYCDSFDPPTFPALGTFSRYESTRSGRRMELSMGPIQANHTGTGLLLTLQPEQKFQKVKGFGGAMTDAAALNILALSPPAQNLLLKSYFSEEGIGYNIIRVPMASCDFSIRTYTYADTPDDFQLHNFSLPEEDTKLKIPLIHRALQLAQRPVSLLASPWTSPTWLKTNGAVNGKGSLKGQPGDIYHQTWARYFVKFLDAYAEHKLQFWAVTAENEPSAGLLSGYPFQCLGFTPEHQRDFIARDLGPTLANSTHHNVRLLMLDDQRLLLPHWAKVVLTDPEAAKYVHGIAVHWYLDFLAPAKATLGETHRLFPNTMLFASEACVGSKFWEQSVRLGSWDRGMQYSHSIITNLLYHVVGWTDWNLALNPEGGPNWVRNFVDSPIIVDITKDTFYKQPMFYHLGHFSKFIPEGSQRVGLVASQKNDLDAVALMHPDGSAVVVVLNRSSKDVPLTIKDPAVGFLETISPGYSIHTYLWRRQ
Assay: Glucocerebrosidase;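 also: the screen sought inhibitors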
Conditions: purified enzyme, resorufin glucoside fluorescence (screen aimed at inhibitors), 20 min
How it was run: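 Wild-type enzyme at 0.2 nM final in 50mM citric acid/KH2PO4, 10mM sodium taurocholate, 0.01% tween-20, pH 5.9, with resorufin beta-D-glucopyranoside at 30 uM final. Compounds titrated, 20 min at RT, red fluorescence read; AC50 from titration.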
Potency is read from the fitted curve at half-maximal effect.

Potency, inactive:
c1ccc(-c2nc3cc(Cc4ccc5oc(-c6ccccn6)nc5c4)ccc3o2)nc1 > 76.9 µM, CC1(C)CC2CC(C)(CN2C(=O)COC(=O)c2ccc(Cl)cc2N)C1 (centres undefined) > 76.9 µM, Cc1cnc(C(=O)Nc2cccc3ncccc23)cn1 > 76.9 µM, CCCCn1c(NC(=O)c2ccccc2Cl)c(C#N)c2nc3ccccc3nc21 > 76.9 µM, Cc1csc(NC(=O)CSc2ncnc3c2cnn3-c2ccccc2Cl)n1 > 76.9 µM, O=C1NCCN1C(=O)C12CC3CC(CC(C3)C1)C2 > 76.9 µM, CCOc1cc2[nH]c(=S)n(CC3CCCN3CC)c(=O)c2cc1OCC (centres undefined) > 76.9 µM, CCn1c(SCC(=O)c2cccs2)nnc1-c1ccco1 > 76.9 µM, CN(CCNC(=O)CN1CCN(Cc2ccccc2Cl)C1=O)Cc1ccccc1 > 76.9 µM, Cc1nn(-c2ccccc2)c2[nH]c(=O)c(CNc3ccc4c(c3)OCCO4)cc12 > 76.9 µM, CC1CCCCN1C(=O)CSc1nc2ccsc2c(=O)n1Cc1ccccn1 (centres undefined) > 76.9 µM, COc1ccc(S(=O)(=O)Nc2cc(OC)c(NC(=O)c3ccco3)cc2OC)cc1 > 76.9 µM, CN1CCN(S(=O)(=O)c2ccc(NC(=O)c3ccco3)cc2)CC1 > 76.9 µM, O=S(=O)(c1ccc(OCC(O)CN2CCN(c3ccccc3)CC2)cc1)N1CCOCC1 (centres undefined) > 76.9 µM, Cc1ccc2nc(SCC(=O)N3CCCC3)[nH]c2c1 > 76.9 µM, CCOC(=O)C1CCCN(c2ncnc3c2[nH]c2cccc(OC)c23)C1 (centres undefined) > 76.9 µM, COC(=O)C(O)(CC(=O)Nc1ccc(Cl)cc1F)C(F)(F)F (centres undefined) > 76.9 µM, COc1ccc(CCC(=O)N2CC(C)OC(C)C2)cc1 (centres undefined) > 76.9 µM, COc1ccc(CCNC(=O)C2CCN(S(=O)(=O)c3cccc4nsnc34)CC2)cc1OC > 76.9 µM, CCN(CC)S(=O)(=O)c1ccc(-c2nnc(SCc3nnc(-c4ccc(C)cc4)o3)o2)cc1 > 76.9 µM, CCc1ccc(N2CC(C(=O)OCC(=O)NC3CCS(=O)(=O)C3)CC2=O)cc1 (centres undefined) > 76.9 µM, COCCOC(=O)c1c(C)n(C)c2ccc(OC(=O)N3CCOCC3)cc12 > 76.9 µM, CCOc1ccc2sc(NS(=O)(=O)c3ccc(OC)c(OC)c3)nc2c1 > 76.9 µM, COc1cc(NS(=O)(=O)c2ccc(NC(=O)C3CCCO3)cc2)nc(OC)n1 (centres undefined) > 76.9 µM, CN1C(=O)C(O)(CC(=O)c2cccc(-n3cccc3)c2)c2ccccc21 (centres undefined) > 76.9 µM, Cc1cc(C)n2nc(-c3cccnc3)nc2n1 > 76.9 µM, N#C/C=C1/NC(=O)c2ccccc2S1 > 76.9 µM, CC(C)CCNC(=O)CN(CC1CCCO1)C(=O)CCC(=O)Nc1nccs1 (centres undefined) > 76.9 µM, COc1ccc(OC)c(C2=NOC(C(=O)Nc3cccc(C(C)=O)c3)C2)c1 (centres undefined) > 76.9 µM, O=C(Cc1c(F)cccc1Cl)N1CCCC1 > 76.9 µM, NC(=O)C1CCN(c2ncnc3c(-c4ccccc4)nsc23)CC1 > 76.9 µM, COc1ccccc1OCCCn1c(=O)sc2ccccc21 > 76.9 µM, Cc1[nH]c(=S)n(CC2CCCO2)c1C (centres undefined) > 76.9 µM, CCOC(=O)c1cc(S(=O)(=O)N2CCN(C(=O)OCC)CC2)cn1C > 76.9 µM, COc1ccc(C)cc1N(CC(=O)O)S(=O)(=O)c1ccc(C)cc1 > 76.9 µM, O=S1(=O)N=C(N2CCN(Cc3ccc4c(c3)OCO4)CC2)c2ccccc21 > 76.9 µM, Cc1onc(-c2c(F)cccc2Cl)c1C(=O)Nc1cccc2nsnc12 > 76.9 µM, Cc1sc2ncnc(-n3cnc4ccccc43)c2c1C > 76.9 µM, Cc1ccc(S(=O)(=O)Nc2cc(NC(=O)CN3CCOCC3)ccc2Cl)cc1 > 76.9 µM, Cc1ccccc1-c1noc(-c2ccccc2C(=O)N2CCCC2)n1 > 76.9 µM, CCOC(=O)c1cnc(-n2nc(C)cc2C)nc1NC > 76.9 µM, Cn1c(=O)c2c(ncn2CC(=O)OCc2ccccc2)n(C)c1=O > 76.9 µM, CC(C)NC(=O)N(O)C1N(Cc2ccc3c(c2)OCO3)C(=S)SC1(C)C (centres undefined) > 76.9 µM, CCOC(=O)C1=C(C)NC(C)=C(C(=O)OCC)C1C1=COCCO1 > 76.9 µM, Oc1ccccc1-c1nc(NCC2CCCO2)c2ccccc2n1 (centres undefined) > 76.9 µM, CCN1CCN(C(=O)c2nn(-c3ccc(OC)cc3)c(=O)c3c2c2ccccc2n3C)CC1 > 76.9 µM, O=C(CSc1nnc(-c2cccs2)n1-c1ccccc1)NCc1ccc2c(c1)OCO2 > 76.9 µM, Cc1ccccc1Cn1ccc(NC(=O)c2cnn3cccnc23)n1 > 76.9 µM, CCc1ccc(-c2nc(CN3CCC(C(=O)NCCN(CC)c4ccccc4)CC3)c(C)o2)cc1, Clc1ccc(NCc2nncn2-c2ccccc2)cc1 > 76.9 µM, CCCCCCN=C(C)C1=C(O)C(C(=O)OC)C(C)(C)CC1=O (centres undefined) > 76.9 µM, Clc1ccccc1COc1ccccc1-c1nnco1 > 76.9 µM, O=C(CSc1ccc(-c2ccccc2)nn1)N1CCOCC1 > 76.9 µM, O=C(C1CSC2(c3ccc(F)cc3)CCC(=O)N12)N1CCCCCC1 (centres undefined) > 76.9 µM, CCOC(=O)CNC(=O)C(NC(=O)C1CCC(C)CC1)C(C)CC (centres undefined) > 76.9 µM, O=C(CCC1COc2ccccc2O1)Nc1ccc(Cl)cn1 (centres undefined) > 76.9 µM, O=C(Nc1cc(C(F)(F)F)ccc1N1CCOCC1)C1Cc2ccccc2CN1C(=O)c1ccco1 (centres undefined) > 76.9 µM, CCOC(=O)c1c(C)c(C(=O)Nc2ccc3c(c2)OCCO3)c(C)n1CC > 76.9 µM, CCOC(=O)c1ccc(NC(=O)Cn2cccc2)cc1 > 76.9 µM, CCOCCCNC(=O)C(NC(=O)C1CCC(=O)N1)c1ccc(C)cc1 (centres undefined) > 76.9 µM, O=c1cc(-c2ccccc2)nc(N2CCN(Cc3ccccc3)CC2)[nH]1 > 76.9 µM, COc1ccc(C(=O)NC(=O)CSc2nnc(-c3ccco3)n2-c2ccccc2)cc1 > 76.9 µM, Cc1cnc(NC(=O)CSc2ncc(-c3ccccc3)n2Cc2ccco2)s1 > 76.9 µM, O=C(COC(=O)c1cc(S(=O)(=O)N2CCOCC2)ccc1O)NCC1CCCO1 (centres undefined) > 76.9 µM, COc1ccc(C2Nc3ccccc3C(=O)N2Cc2ccco2)cc1COc1ccc(NC(C)=O)cc1 (centres undefined) > 76.9 µM, O=C(CN(c1ccc2c(c1)OCCO2)S(=O)(=O)c1ccccc1)NCc1ccco1 > 76.9 µM, COc1ccc(-n2nnc3c(=O)n(CC(=O)NCC4CCCO4)cnc32)cc1 (centres undefined) > 76.9 µM, FC(F)(F)c1nc(N2CCN(c3ccccc3)CC2)nc2c1CCCCC2 > 76.9 µM, COCCN(CC(=O)Nc1ccc(F)cc1)S(=O)(=O)c1ccc(S(=O)(=O)N2CCCC2)cc1 > 76.9 µM, CN1CCN(S(=O)(=O)c2ccc(-c3noc(C4CCN(S(C)(=O)=O)CC4)n3)cc2)CC1 > 76.9 µM, Cc1nn(-c2ccccc2)c2sc(C(=O)c3c(N)n(C)c(=O)n(C)c3=O)cc12 > 76.9 µM, COC(=O)C1=CN(CCCN2CCCC2=O)C=C(C(=O)OC)C1c1cccs1 > 76.9 µM, Cn1c(=O)[nH]c(=O)c2[nH]c(CN3CCN(C(=O)c4ccco4)CC3)nc21 > 76.9 µM, CCOC(=O)COc1ccc2c3c(c(=O)oc2c1C)CCC3, COc1cccc(NC(=O)N2CCN(c3cccc(C)c3C)CC2)c1 > 76.9 µM, Cc1cccc(NC(=O)c2ccccc2C(=O)O)c1 > 76.9 µM, CCOC(=O)Nc1sc2c(c1C#N)CCC(C)C2 (centres undefined) > 76.9 µM, CCOc1ccccc1C(=O)NCCC(=O)O > 76.9 µM, CN(C)C(=O)CCc1nc(-c2ccc(C(C)(C)C)cc2)no1 > 76.9 µM, CCOC(=O)N1CCN(c2cc(=O)n(C3CCCCC3)c(=O)[nH]2)CC1 > 76.9 µM, COc1ccc(NC(=O)Cn2cccc2)c(OC)c1 > 76.9 µM, CC(=O)N1CCc2cc(Br)cc(S(=O)(=O)N3CCN(c4ccccn4)CC3)c21 > 76.9 µM, CCOC(=O)C1CCN(C(=O)CCc2ccccc2)CC1 > 76.9 µM, COC(=O)c1ccc(C2CC(=O)Nc3cc(OC)c(OC)c(OC)c32)cc1 (centres undefined) > 76.9 µM, C=CCn1c(-c2cccs2)nc2nc3ccccc3nc21 > 76.9 µM, Cc1ccccc1C(=O)Nc1ccc(Br)c(C)n1 > 76.9 µM, CCCCCn1c(=O)[nH]c2cc(C(=O)NCCN(CC)CC)ccc2c1=O > 76.9 µM, Cc1ccc(S(=O)(=O)N(C)CCCC(=O)NCc2ccc3c(c2)OCO3)cc1 > 76.9 µM, Cc1nn(-c2ccccn2)c2nc(-c3cccs3)cc(C(=O)N3CCOCC3)c12 > 76.9 µM
